Values marked as one replicate rest on one cluster of the flow cell; about a third of the high ones do not repeat.
These sequences were tested on ATP (assay: switch fluorescence ratio, 500 uM ATP over buffer (Cy3 cluster intensity, sum of 5 cycles each) (fold (ratio)); higher = stronger signal-on switching upon ATP binding; sequences stand for … in TCGTCGGCAGCGTCAGATGTGTATAAGAGACAGTTTTTTTTTTTTTTTTTTTTTTTTT…TC). Conditions: aptamer strand: ATP DNA aptamer (quencher-CACCTGGGGGAGTATTGCGGAGGAAGG + anchor), 100 nM annealed; ATP concentration: 500 uM; one replicate.
In short: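 Exposure to 500 uM ATP lasted 15 min at 22 °C before imaging, and a selection-buffer image was taken beforehand, for Cy3-labelled switching-strand clusters on a modified Illumina MiSeq flow-cell annealed to 100 nM quencher-labelled ATP aptamer. Five buffer/ATP cycles were run with NaOH stripping and re-annealing between them. The fluorescence ratio per cluster is summed target-cycle over summed buffer-cycle Cy3 intensity, averaged per switch-domain sequence. Clusters outside 100-1000 RFU were excluded.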
Sequence AACTTAGAGC has a switch fluorescence ratio of 0.99.
In the case of AACTTGAGCT, the switch fluorescence ratio is reported as 1.01.
Sequence AACTTGCGGC has a switch fluorescence ratio of 1.01.
For AACTTGGCGA, the switch fluorescence ratio was 1.04.
AACTTGTAT gave a switch fluorescence ratio of 1.01.
Work on AAGAAAAGAT yielded a switch fluorescence ratio of 1.02.
AAGAAAGCGT was tested, and the switch fluorescence ratio was 1.03.
Sequence AAGAAAGTTC has a switch fluorescence ratio of 1.71.
Sequence AAGAACGGAA has a switch fluorescence ratio of 1.05.
In the case of AAGAACGGGT, the switch fluorescence ratio is reported as 0.977.
In the case of AAGAACTGTG, the switch fluorescence ratio is reported as 1.11.
AAGAACTTGA was tested, and the switch fluorescence ratio was 1.05.
With AAGAAGGGCG the switch fluorescence ratio was 0.881.
Work on AAGAATGAGA yielded a switch fluorescence ratio of 0.979.
For AAGACAGTT, the switch fluorescence ratio was 1.03.
AAGACCGATT gave a switch fluorescence ratio of 0.971.
Work on AAGACTCAGC yielded a switch fluorescence ratio of 0.993.
AAGACTCCCA showed a switch fluorescence ratio of 1.06.
AAGACTGGAC was tested, and the switch fluorescence ratio was 1.09.
For AAGACTTTGG, the switch fluorescence ratio was 0.948.
Work on AAGAGAATGA yielded a switch fluorescence ratio of 1.02.
For AAGAGCCTAC, the switch fluorescence ratio was 0.983.
AAGAGCCTT was tested, and the switch fluorescence ratio was 1.01.
Sequence AAGAGCTATA has a switch fluorescence ratio of 1.
Work on AAGAGCTGTG yielded a switch fluorescence ratio of 1.01.
With AAGAGGACAC the switch fluorescence ratio was 1.12.
AAGAGGCACA showed a switch fluorescence ratio of 0.98.
AAGAGGGATA was tested, and the switch fluorescence ratio was 1.06.
AAGAGGTGA showed a switch fluorescence ratio of 0.977.
Sequence AAGAGGTTAT has a switch fluorescence ratio of 1.02.
With AAGATCCACA the switch fluorescence ratio was 0.988.
With AAGATCCATT the switch fluorescence ratio was 0.985.
In the case of AAGATGCCTG, the switch fluorescence ratio is reported as 1.04.
AAGATGCTGG showed a switch fluorescence ratio of 1.04.
AAGATTCTAA was tested, and the switch fluorescence ratio was 1.02.
AAGATTGGT showed a switch fluorescence ratio of 0.925.
AAGCAAAAGA gave a switch fluorescence ratio of 1.04.
In the case of AAGCACAAGG, the switch fluorescence ratio is reported as 1.13.
AAGCACCGAC showed a switch fluorescence ratio of 1.45.
In the case of AAGCAGGCCA, the switch fluorescence ratio is reported as 1.11.
With AAGCATATTG the switch fluorescence ratio was 1.
AAGCCCGATG was tested, and the switch fluorescence ratio was 1.03.
For AAGCCGATTA, the switch fluorescence ratio was 1.01.
AAGCCGTCTC showed a switch fluorescence ratio of 1.06.
Work on AAGCCGTGGA yielded a switch fluorescence ratio of 0.962.
AAGCCTAAGA gave a switch fluorescence ratio of 1.02.
AAGCCTGGCT was tested, and the switch fluorescence ratio was 0.967.
For AAGCGAGATT, the switch fluorescence ratio was 1.01.
AAGCGATCTA gave a switch fluorescence ratio of 1.03.
In the case of AAGCGATTAG, the switch fluorescence ratio is reported as 1.03.
With AAGCGCAGC the switch fluorescence ratio was 1.03.
For AAGCGCCCGC, the switch fluorescence ratio was 0.93.
Sequence AAGCGGCCGA has a switch fluorescence ratio of 0.987.
AAGCGGCTCC gave a switch fluorescence ratio of 1.31.
Work on AAGCGGTAGA yielded a switch fluorescence ratio of 1.05.
AAGCTAGACC was tested, and the switch fluorescence ratio was 1.11.
In the case of AAGCTATAGC, the switch fluorescence ratio is reported as 1.04.
AAGCTATATT showed a switch fluorescence ratio of 1.06.
In the case of AAGCTATGCC, the switch fluorescence ratio is reported as 0.986.
In the case of AAGCTTATTT, the switch fluorescence ratio is reported as 0.977.
AAGCTTGTA showed a switch fluorescence ratio of 1.02.
For AAGCTTTTGA, the switch fluorescence ratio was 0.973.
With AAGGAAAAGG the switch fluorescence ratio was 0.994.
Work on AAGGAACGGG yielded a switch fluorescence ratio of 1.01.
For AAGGAATTAG, the switch fluorescence ratio was 0.982.
AAGGACCGTT gave a switch fluorescence ratio of 0.995.
In the case of AAGGACTACC, the switch fluorescence ratio is reported as 1.07.
AAGGAGACTC was tested, and the switch fluorescence ratio was 1.03.
Work on AAGGAGCAG yielded a switch fluorescence ratio of 1.03.
For AAGGAGGTTC, the switch fluorescence ratio was 1.
With AAGGATACCA the switch fluorescence ratio was 1.02.
AAGGATGGCA gave a switch fluorescence ratio of 1.01.
In the case of AAGGCACCCT, the switch fluorescence ratio is reported as 1.05.
AAGGCAGCTC gave a switch fluorescence ratio of 1.03.
For AAGGCATCC, the switch fluorescence ratio was 1.01.
Work on AAGGCCGTGG yielded a switch fluorescence ratio of 0.938.
Work on AAGGCGACTG yielded a switch fluorescence ratio of 0.968.
Sequence AAGGCGCGCT has a switch fluorescence ratio of 1.04.
Sequence AAGGCTCCCA has a switch fluorescence ratio of 1.01.
AAGGCTTGT gave a switch fluorescence ratio of 1.05.
AAGGGAAGC was tested, and the switch fluorescence ratio was 1.04.
AAGGGACCAA gave a switch fluorescence ratio of 1.04.
For AAGGGACGCA, the switch fluorescence ratio was 1.18.
Work on AAGGGAGCGT yielded a switch fluorescence ratio of 0.984.
For AAGGGAGGGT, the switch fluorescence ratio was 1.
AAGGGATCGA gave a switch fluorescence ratio of 0.938.
AAGGGATGGT showed a switch fluorescence ratio of 1.03.
With AAGGGCGGTT the switch fluorescence ratio was 1.04.
Sequence AAGGGCTCGC has a switch fluorescence ratio of 0.976.
AAGGGGAAGA was tested, and the switch fluorescence ratio was 1.03.
Sequence AAGGGGGTTC has a switch fluorescence ratio of 1.07.
AAGGGGTTCC gave a switch fluorescence ratio of 0.979.
For AAGGGTGGA, the switch fluorescence ratio was 1.05.
For AAGGGTGGAC, the switch fluorescence ratio was 0.974.
In the case of AAGGGTTGCA, the switch fluorescence ratio is reported as 1.
Sequence AAGGTAATAG has a switch fluorescence ratio of 1.08.
AAGGTATACT was tested, and the switch fluorescence ratio was 0.995.
AAGGTCTATA was tested, and the switch fluorescence ratio was 0.991.
Sequence AAGGTCTCAA has a switch fluorescence ratio of 0.967.
AAGGTCTGCA gave a switch fluorescence ratio of 0.973.
For AAGGTGCAAA, the switch fluorescence ratio was 1.03.
With AAGGTTCGTA the switch fluorescence ratio was 0.979.
Work on AAGGTTCGTT yielded a switch fluorescence ratio of 1.01.
For AAGGTTTGA, the switch fluorescence ratio was 1.03.
With AAGGTTTGGT the switch fluorescence ratio was 0.963.
In the case of AAGTAAACGG, the switch fluorescence ratio is reported as 1.07.
With AAGTAAAGTG the switch fluorescence ratio was 1.09.
Work on AAGTAATAGT yielded a switch fluorescence ratio of 1.01.
With AAGTACACGG the switch fluorescence ratio was 1.16.
AAGTACAGTA gave a switch fluorescence ratio of 1.18.
For AAGTACGATG, the switch fluorescence ratio was 1.18.
Work on AAGTAGCCCC yielded a switch fluorescence ratio of 1.05.
With AAGTAGGTTC the switch fluorescence ratio was 0.924.
With AAGTATACAG the switch fluorescence ratio was 1.05.
Sequence AAGTATCGTG has a switch fluorescence ratio of 1.02.
With AAGTATGAGA the switch fluorescence ratio was 1.02.
With AAGTATGAGC the switch fluorescence ratio was 1.02.
Sequence AAGTATTAAT has a switch fluorescence ratio of 0.965.
In the case of AAGTATTCTT, the switch fluorescence ratio is reported as 1.03.
AAGTCACAGT was tested, and the switch fluorescence ratio was 1.08.
Work on AAGTCAGAGA yielded a switch fluorescence ratio of 1.02.
With AAGTCCAAAT the switch fluorescence ratio was 0.961.
Work on AAGTCCGAAT yielded a switch fluorescence ratio of 0.983.
In the case of AAGTCCTTAG, the switch fluorescence ratio is reported as 0.974.
AAGTCCTTTG gave a switch fluorescence ratio of 1.01.
With AAGTCGACCC the switch fluorescence ratio was 1.03.
AAGTCGCGAG was tested, and the switch fluorescence ratio was 1.03.
AAGTCTCATT showed a switch fluorescence ratio of 0.974.
For AAGTGACGAG, the switch fluorescence ratio was 0.958.
AAGTGATAA showed a switch fluorescence ratio of 1.02.
For AAGTGCCGTG, the switch fluorescence ratio was 0.992.
AAGTGGCGGA gave a switch fluorescence ratio of 0.992.
AAGTGGGCGA gave a switch fluorescence ratio of 1.03.
AAGTGGTTCA was tested, and the switch fluorescence ratio was 0.971.
With AAGTGTCTTT the switch fluorescence ratio was 0.987.
Sequence AAGTTACCCG has a switch fluorescence ratio of 1.01.
AAGTTAGGTG gave a switch fluorescence ratio of 1.08.
Sequence AAGTTATTTG has a switch fluorescence ratio of 1.06.
AAGTTCTGCG was tested, and the switch fluorescence ratio was 0.956.
In the case of AAGTTCTTCG, the switch fluorescence ratio is reported as 0.984.
With AAGTTGGCTA the switch fluorescence ratio was 1.04.
With AAGTTGGGA the switch fluorescence ratio was 1.
Sequence AAGTTGTTAC has a switch fluorescence ratio of 1.03.
In the case of AAGTTGTTTG, the switch fluorescence ratio is reported as 0.943.
With AAGTTTACAC the switch fluorescence ratio was 1.01.
With AAGTTTACGA the switch fluorescence ratio was 1.02.
For AAGTTTCAAT, the switch fluorescence ratio was 0.991.
AAGTTTCGTC gave a switch fluorescence ratio of 1.02.
Sequence AATAAAGTCT has a switch fluorescence ratio of 1.
For AATAAATCAC, the switch fluorescence ratio was 0.998.
In the case of AATAACGCT, the switch fluorescence ratio is reported as 1.04.
With AATAACGGCG the switch fluorescence ratio was 0.958.
With AATAAGGCGG the switch fluorescence ratio was 0.987.
AATAATGTGT was tested, and the switch fluorescence ratio was 0.98.
Work on AATACACTTC yielded a switch fluorescence ratio of 1.04.
In the case of AATACAGTAT, the switch fluorescence ratio is reported as 1.01.
With AATACGCCAA the switch fluorescence ratio was 1.58.
In the case of AATACGCGTA, the switch fluorescence ratio is reported as 0.984.
AATACGTTCG showed a switch fluorescence ratio of 1.02.
Sequence AATACTTAAC has a switch fluorescence ratio of 1.16.
With AATAGACGAG the switch fluorescence ratio was 0.985.
Sequence AATAGATCTA has a switch fluorescence ratio of 0.985.
For AATAGATTAC, the switch fluorescence ratio was 1.04.
AATAGCTCTG was tested, and the switch fluorescence ratio was 0.957.
With AATAGGACAG the switch fluorescence ratio was 1.02.
In the case of AATAGGTATG, the switch fluorescence ratio is reported as 1.06.
AATAGTGTG showed a switch fluorescence ratio of 0.994.
AATAGTTCCT was tested, and the switch fluorescence ratio was 1.04.
With AATATAGCCT the switch fluorescence ratio was 1.15.
In the case of AATATATAAC, the switch fluorescence ratio is reported as 0.985.
Work on AATATATGTG yielded a switch fluorescence ratio of 1.02.
For AATATCAAGA, the switch fluorescence ratio was 0.949.
AATATCCAG showed a switch fluorescence ratio of 0.984.
In the case of AATATCGACG, the switch fluorescence ratio is reported as 1.03.
Work on AATATGAATC yielded a switch fluorescence ratio of 1.03.
For AATATGCGT, the switch fluorescence ratio was 0.997.
AATATGTTAA was tested, and the switch fluorescence ratio was 1.03.
AATATGTTTC was tested, and the switch fluorescence ratio was 1.
For AATATTGGTT, the switch fluorescence ratio was 1.24.
AATCAAACCA gave a switch fluorescence ratio of 1.04.
Work on AATCAAATTC yielded a switch fluorescence ratio of 1.03.
For AATCAACTTG, the switch fluorescence ratio was 1.01.
Work on AATCACAGTA yielded a switch fluorescence ratio of 1.06.
Work on AATCACCATA yielded a switch fluorescence ratio of 1.04.
AATCACTGGG showed a switch fluorescence ratio of 0.986.
In the case of AATCAGCATG, the switch fluorescence ratio is reported as 1.03.
Sequence AATCAGGGCT has a switch fluorescence ratio of 0.997.
Work on AATCAGGTGC yielded a switch fluorescence ratio of 1.95.
In the case of AATCAGTGG, the switch fluorescence ratio is reported as 1.
AATCATTGG was tested, and the switch fluorescence ratio was 1.02.
AATCCCTTCC showed a switch fluorescence ratio of 2.28.
AATCCGTGG showed a switch fluorescence ratio of 1.05.
AATCCTCCTT was tested, and the switch fluorescence ratio was 1.07.
With AATCCTGATA the switch fluorescence ratio was 1.03.
AATCGAGTTT gave a switch fluorescence ratio of 1.06.
In the case of AATCGATCAC, the switch fluorescence ratio is reported as 0.995.
Sequence AATCGCGCCG has a switch fluorescence ratio of 1.07.
For AATCGCTTTC, the switch fluorescence ratio was 1.06.
For AATCGGACTG, the switch fluorescence ratio was 0.943.
AATCGGCCCT gave a switch fluorescence ratio of 1.04.
AATCGGGCCT gave a switch fluorescence ratio of 1.05.

— the supplement of paper PMC10126150
